# Test results reported in PMC4336329 (PLoS ONE, 2015).
# The whole screen tested about 310,000 compounds, of which about 14,000 (4.5%) showed an effect of 50% or more. Effects have a minus sign here. The list shows a part of the results.
# Target: human ether-à-go-go-related gene (hERG) potassium channel (human, UniProt Q12809)
# Experiment: primary screen, population patch clamp on CHO cells stably expressing hERG
# 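Note: peak tail current of the secondary pulse compared with the same well before compound.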
# Sequence of human ether-à-go-go-related gene (hERG) potassium channel (Q12809 whole entry, looked up): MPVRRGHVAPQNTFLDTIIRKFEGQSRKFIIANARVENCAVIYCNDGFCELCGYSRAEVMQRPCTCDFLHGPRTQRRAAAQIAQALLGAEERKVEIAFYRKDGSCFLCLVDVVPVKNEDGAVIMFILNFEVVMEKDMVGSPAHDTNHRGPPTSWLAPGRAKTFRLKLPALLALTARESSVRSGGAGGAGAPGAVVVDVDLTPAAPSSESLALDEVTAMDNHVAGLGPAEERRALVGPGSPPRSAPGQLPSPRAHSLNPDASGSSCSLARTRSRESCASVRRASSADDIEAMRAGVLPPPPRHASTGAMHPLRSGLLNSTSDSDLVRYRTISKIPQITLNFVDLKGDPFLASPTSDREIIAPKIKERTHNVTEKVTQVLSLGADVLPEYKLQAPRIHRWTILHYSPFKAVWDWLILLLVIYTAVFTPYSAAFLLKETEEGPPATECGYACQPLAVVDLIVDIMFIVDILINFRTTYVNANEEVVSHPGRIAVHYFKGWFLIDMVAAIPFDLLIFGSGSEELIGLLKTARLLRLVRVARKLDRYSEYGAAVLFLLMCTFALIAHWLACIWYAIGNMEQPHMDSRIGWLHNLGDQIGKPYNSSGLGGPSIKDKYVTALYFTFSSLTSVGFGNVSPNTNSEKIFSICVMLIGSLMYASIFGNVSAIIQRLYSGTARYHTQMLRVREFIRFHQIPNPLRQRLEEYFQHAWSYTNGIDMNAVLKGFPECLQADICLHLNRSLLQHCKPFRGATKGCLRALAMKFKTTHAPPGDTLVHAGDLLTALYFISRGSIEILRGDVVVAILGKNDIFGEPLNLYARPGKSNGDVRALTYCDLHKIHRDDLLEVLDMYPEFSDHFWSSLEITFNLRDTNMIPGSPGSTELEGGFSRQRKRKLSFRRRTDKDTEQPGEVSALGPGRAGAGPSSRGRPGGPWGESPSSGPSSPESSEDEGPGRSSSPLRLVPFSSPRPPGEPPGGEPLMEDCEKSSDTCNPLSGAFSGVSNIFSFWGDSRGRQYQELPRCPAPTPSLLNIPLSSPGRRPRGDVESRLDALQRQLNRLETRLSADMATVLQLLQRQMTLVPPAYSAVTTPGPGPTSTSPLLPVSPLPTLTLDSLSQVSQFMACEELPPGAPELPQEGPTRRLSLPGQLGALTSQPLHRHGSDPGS
row,SMILES,"hERG current change (%, negative = inhibition) at 10uM [%]"
1,CCN(CC)c1ccc(CN2CC=C(c3ccc(F)cc3)CC2)cc1,-78.4
2,CC(=O)NC(CC(=O)Nc1ccc2c(c1)OCCO2)c1ccccc1 (centres unmarked),3.79
3,Cc1cccn2c(=O)nc(SCC(=O)N3CCCC3)nc12,-22.6
4,COc1ccc(/C=C2\CCC(C3CCCC3)C2=O)cc1Cn1nc(C)cc1C (centres unmarked),14.8
5,O=C(c1cc2ncccn2n1)N1CCc2c([nH]c3ccccc23)C1c1ccccc1F (centres unmarked),-5.11
6,CC(=O)Nc1ccc(C(=O)Cn2c3[n+](c4c(F)c(F)ccc42)CCCCC3)cc1.[Br-],5.76
7,O=C(CSCc1ccco1)c1ccc(Cl)s1,10.8
8,COc1cc(-c2c(C#N)c(N)nc(SCc3ccncc3)c2C#N)cc(OC)c1OC,-42.9
9,Cc1cccc(Nc2ncnc3onc(-c4cccc(Cl)c4)c23)c1C,-4.32
10,Cc1ccc2nc(Cl)c(/C=N/NC(=O)CN3CCOCC3)cc2c1,-1.59
11,O=C1C(NS(=O)(=O)c2ccc(Cl)cc2)=C(N2CCCCC2)C(=O)c2ccccc21,-13.3
12,CC1(C)NC(=O)N(CC(=O)OCC(=O)c2ccc(F)cc2)C1=O,-3.53
13,CCOC(=O)c1ccc(NC(=S)N(CCCN2CCCCCC2)Cc2ccco2)cc1,-73.7
14,CCCN(CCO)Cc1ccc2ccccc2c1,-20.8
15,Cc1cc(C(=O)c2cnc(/N=C/N(C)C)s2)c(F)cc1Cl,-41.5
16,CCOc1ccc(CCNC(=O)COC(=O)c2oc3ccccc3c2COC)cc1OCC,-14.4
17,CC1(C)C/C(=N\NC(=S)Nc2ccccc2F)c2cc(O)ccc2O1,-18.8
18,Cc1ccc(C)c(NC(=S)/C(=C(\[O-])c2ccc(Cl)s2)[n+]2ccccc2)c1,-11.4
19,COc1cc(C(=O)COC(=O)c2cc([N+](=O)[O-])ccc2N2CCOCC2)ccc1OC(F)F,-41.2
20,O=c1n(-c2ccccc2)c(=O)n(Cc2ccccn2)n1Cc1ccccn1,3.02
21,COc1ccccc1CC(=O)N1CCN(CCc2ccccc2)CC1,-23.1
22,Cc1ccc(CNc2nc(Cl)c(C#N)s2)cc1,-7.26
23,COc1cc(C2N=C(c3ccccc3)NO2)cc(Br)c1O (centres unmarked),-5.13

row,SMILES,"hERG current change (%, negative = inhibition) at 10uM [%]"
1,CCN(Cc1ccccc1)C(=O)c1cc2c(OC)c(OC)c(OC)cc2[nH]1,-1.92
2,COCCN=c1scc(-c2cc(OC)c(OC)c(OC)c2)n1/N=C/c1c(C)[nH]c2ccccc12,10.2
3,Cc1nc(C(=O)N(C)C)nn1-c1cc(Cl)cc(Cl)c1,-2.06
4,COc1ccc(C(=O)N/C(=C\c2cn(C)c3ccccc23)C(=O)N2CCN(C)CC2)cc1,-7.61
5,Cc1cc(Nc2cccc(C)c2C)n2ncnc2n1,9.53
6,COc1ccc(C(C)=O)cc1CSc1nnc(Nc2ccccc2)s1,0.366
7,Br.CCOC(=O)/C(C)=N/Nc1nc(-c2ccc(NC(C)=O)cc2)cs1,5.91
8,O=C(OCc1nc2ccc(Cl)cc2n1CCO)c1ccccc1,-32.2
9,O=C1C2C3C=CC(CO)(O3)C2C(=O)N1c1ccccc1-c1ccccc1 (centres unmarked),-0.427
10,O=C(Nc1nnc(C(F)(F)F)s1)c1c(F)cccc1F,18.8
11,O=C(Cc1cccs1)Nc1nc(-c2ccccc2)cs1,-2.34
12,CC(C)(C)NC(=O)NC(=O)CN1CCN(S(=O)(=O)c2ccc3c(c2)CCCC3)CC1,12
13,CCOc1nc(-c2ccccc2)ncc1Oc1ccccc1,17.5
14,CCCn1ccc(O)c(Cc2ccc(Cl)cc2)c1=O,12.9
15,Cc1ccc(CN2CCN(CC(=O)N/N=C/c3ccccc3F)CC2)cc1,-66.4
16,COc1ccc(C2=NOC(Cn3nc(C(=O)NCc4cccc(C(F)(F)F)c4)cc3-c3ccccc3)C2)cc1 (centres unmarked),6.61
17,CCOC(=O)CC1(NC(=O)C2CCC(=O)N(Cc3ccccc3F)C2)CCCCC1 (centres unmarked),-11.7
18,O=C(O)c1ccccc1CSc1ncn[nH]1,1.26
19,O=C1OCCC1Sc1nnc(-c2cccc(Br)c2)o1 (centres unmarked),9.49
20,COCCSc1nnc(NC(=O)C2CCCCC2)s1,4.08
21,Cc1ccc(S(=O)(=O)Oc2ccc(/C=C(/NC(=O)c3ccccc3)C(=O)NCCCC(=O)O)cc2)cc1,28.5
22,C/C(=C\C(=O)c1ccccc1)Nc1ccc(Br)c(Cl)c1,11.8
23,O=C(Cn1cncn1)N/N=C/c1cccc2ccccc12,-4.06

row,SMILES,"hERG current change (%, negative = inhibition) at 10uM [%]"
1,CC(=O)Nc1ccc(NC(=O)COC(=O)c2ccco2)cc1,11.1
2,COc1ccc(-n2c(O)c(C=Nc3ccccc3)c3ccccc3c2=O)cc1,9.14
3,C[C@@H]1CCCCCCCCCCC1=O,19.6
4,Cc1cc(Br)c(NC(=O)Cn2c([N+](=O)[O-])cnc2C)cc1C,4.01
5,O=C(O)c1cc(-c2ccc(/C=c3\sc4nc5ccc(Br)cc5n4c3=O)o2)ccc1Cl,18.4
6,COc1ccc(N2CCN(C3CCCN(Cc4cccc(C)c4)C3)CC2)cc1 (centres unmarked),-32.8
7,Cc1cc(/C=C\c2ccccc2)nc2ccccc12,-4.46
8,CCOc1ccc(N2C(=O)CSC2=NC#N)cc1,8.44
9,CSCCC(=O)NC1CCCN(CCc2ccccc2)C1 (centres unmarked),-38.2
10,Nc1ccc2nc(-c3ccccc3)c(-c3ccccc3)nc2c1,-3.61
11,Cc1noc(/C=C/N(C)C)c1S(=O)(=O)N(C)CC(=O)N1CCc2ccccc21,-10.7
12,CCOc1ccc(/C=N/NC(=O)C(C)Sc2ccccn2)cc1OCC (centres unmarked),8.67
13,CC(C)[C@H](NC(=O)c1ccccc1Cl)C(=O)OCc1cc(=O)n2cc(Br)ccc2n1,-33.7
14,CCOc1nc(NC(=O)NS(=O)(=O)Oc2ccccc2Cl)nc(-c2ccccc2)n1,1.51
15,COc1ccc(CN(CC(=O)NC2CCCC2)C(=O)c2csnn2)cc1,-4.99
16,COc1ccc(S(=O)(=O)N2CCCCC2)cc1NS(=O)(=O)c1ccccc1F,-7.02
17,COc1ccccc1NC(=O)COC(=O)C1CC2C=CC1C2 (centres unmarked),-14.1
18,COc1ccc([N+](=O)[O-])cc1NCC(=O)c1ccc(C)cc1,21.9
19,CCCCOC(=O)C1CCCC(C)N1.Cl (centres unmarked),9.98
20,CCc1nonc1NC(=O)COc1cc(C)c(Cl)c(C)c1,14.7
21,O=C(/C=C/c1ccc(O)cc1)c1c(O)cc(O)cc1O,11.9
22,O=C(Nc1cccc(NC(=O)c2ccc(F)cc2)c1)c1ccc(F)cc1,17.5
23,C/C(=N\NC(=O)C(=O)Nc1ccc(C)cc1)c1ccncc1,-11.4

row,SMILES,"hERG current change (%, negative = inhibition) at 10uM [%]"
1,Cc1c(NC(=O)COC(=O)/C=C/c2ccc(Cl)cc2)c(=O)n(-c2ccccc2)n1C,28.5
2,Cc1ccc(C(C)C)c(OCC(=O)NCC(c2cccs2)N2CCOCC2)c1 (centres unmarked),-48.1
3,Cn1c(=O)n(-c2cccc(Cl)c2)c(=O)n1C,6.81
4,NC(=O)c1cc([N+](=O)[O-])ccc1NCCc1ccccc1,13
5,CCOCCCNC(=O)C(NC(=O)c1ccccn1)c1ccc(C)cc1 (centres unmarked),-0.00042
6,O=C(COC(=O)c1ccc(=O)n(Cc2ccccc2)n1)Nc1ccc2c(c1)OCCO2,11.5
7,Cc1ccc(C=C2C(Cl)=C(Cl)C(Cl)=C2Cl)cc1,0.693
8,COC(=O)C1=C(c2cccc(OCc3ccccc3)c2)C[C@@H]2CC[C@H]1N2C(=O)NCc1cccc(C(F)(F)F)c1,19.6
9,COc1ccc(CN2CCN(Cc3ccc(CO)o3)CC2CCO)cc1C (centres unmarked),-8.64
10,Cc1ccc(NC(=O)COC(=O)CC2CCCC2)cc1Cl,6.56
11,Cc1nc2ccccc2n1Cc1ccc(Br)cc1,-16.4
12,Cc1cccc(COCC(Cc2ccccc2)N2CCN(C(=O)c3cccc(C)c3)CCC2=O)c1 (centres unmarked),-44.7
13,CC(C)CNc1nc(N)c([N+](=O)[O-])c(NC2CCCCC2)n1,7.31
14,CN(C)c1ccc(C(=O)c2ccc(N(C)C)c3ccccc23)cc1,0.727
15,CCCSc1nc(-c2ccccc2)cc(C(F)(F)F)c1C#N,-0.616
16,CSc1ncc(Cl)c(C(=O)Nc2ccccc2Cl)n1,3.36
17,CCC(=O)c1ccc(OCC(O)CN2CCOCC2)cc1 (centres unmarked),7.44
18,O=c1oc(-c2cccs2)nc2sc3c(c12)CCCC3,-1.83
19,CC(=O)N1c2c(cc(Br)cc2S(=O)(=O)NCc2ccc3c(c2)OCO3)CC1C (centres unmarked),-49.8
20,CC(C)(C)NC(=O)C(c1ccncc1)N(Cc1cccs1)C(=O)Cn1nnc(-c2cccs2)n1 (centres unmarked),-23.3
